From PubChem BioAssay AID504333 (National Center for Advancing Translational Sciences (NCATS), 2011)
The campaign covered roughly 360,000 compounds. About 16,000 (4.4%) were called active. The inconclusive results got no clear call from the source; some entries with a clear call stand among them for comparison. Calls come from the whole dose curve; as a rule, active = well fitted inhibition curve with a large enough effect; inconclusive = small, poorly fitted or top-dose-only effect; inactive = no such curve, though single readings can be large or run the other way. A potency beside an inconclusive call is a rough fit, not a confirmed value.

target: Bromodomain adjacent to zinc finger domain protein 2B (Homo sapiens) (UniProt Q9UIF8); assay: qHTS Assay for Inhibitors of BAZ2B; conditions: AlphaScreen BAZ2B-H3K14Ac peptide displacement; activity change, negative = inhibition: at 114 µM (top of the series) unless noted; note: nearly all actives have a fitted effect of over 60% in size
Procedure, shortened: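 In this displacement format the biotinylated H3(5-23) peptide acetylated at Lys14 serves as ligand at 50 nM, with BAZ2B at 50 nM in PBS pH 7.4 containing 0.01% Tween-20. Donor and acceptor beads are 10 ug/mL final.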
% is set by controls: 0 for no effect and ±100 for the full control effect; potency is the fitted concentration of half-maximal effect; tags give direction and shape of the fitted curve.

Chain of UniProt Q9UIF8 (Q9UIF8 whole entry, looked up, the tested form may be a part): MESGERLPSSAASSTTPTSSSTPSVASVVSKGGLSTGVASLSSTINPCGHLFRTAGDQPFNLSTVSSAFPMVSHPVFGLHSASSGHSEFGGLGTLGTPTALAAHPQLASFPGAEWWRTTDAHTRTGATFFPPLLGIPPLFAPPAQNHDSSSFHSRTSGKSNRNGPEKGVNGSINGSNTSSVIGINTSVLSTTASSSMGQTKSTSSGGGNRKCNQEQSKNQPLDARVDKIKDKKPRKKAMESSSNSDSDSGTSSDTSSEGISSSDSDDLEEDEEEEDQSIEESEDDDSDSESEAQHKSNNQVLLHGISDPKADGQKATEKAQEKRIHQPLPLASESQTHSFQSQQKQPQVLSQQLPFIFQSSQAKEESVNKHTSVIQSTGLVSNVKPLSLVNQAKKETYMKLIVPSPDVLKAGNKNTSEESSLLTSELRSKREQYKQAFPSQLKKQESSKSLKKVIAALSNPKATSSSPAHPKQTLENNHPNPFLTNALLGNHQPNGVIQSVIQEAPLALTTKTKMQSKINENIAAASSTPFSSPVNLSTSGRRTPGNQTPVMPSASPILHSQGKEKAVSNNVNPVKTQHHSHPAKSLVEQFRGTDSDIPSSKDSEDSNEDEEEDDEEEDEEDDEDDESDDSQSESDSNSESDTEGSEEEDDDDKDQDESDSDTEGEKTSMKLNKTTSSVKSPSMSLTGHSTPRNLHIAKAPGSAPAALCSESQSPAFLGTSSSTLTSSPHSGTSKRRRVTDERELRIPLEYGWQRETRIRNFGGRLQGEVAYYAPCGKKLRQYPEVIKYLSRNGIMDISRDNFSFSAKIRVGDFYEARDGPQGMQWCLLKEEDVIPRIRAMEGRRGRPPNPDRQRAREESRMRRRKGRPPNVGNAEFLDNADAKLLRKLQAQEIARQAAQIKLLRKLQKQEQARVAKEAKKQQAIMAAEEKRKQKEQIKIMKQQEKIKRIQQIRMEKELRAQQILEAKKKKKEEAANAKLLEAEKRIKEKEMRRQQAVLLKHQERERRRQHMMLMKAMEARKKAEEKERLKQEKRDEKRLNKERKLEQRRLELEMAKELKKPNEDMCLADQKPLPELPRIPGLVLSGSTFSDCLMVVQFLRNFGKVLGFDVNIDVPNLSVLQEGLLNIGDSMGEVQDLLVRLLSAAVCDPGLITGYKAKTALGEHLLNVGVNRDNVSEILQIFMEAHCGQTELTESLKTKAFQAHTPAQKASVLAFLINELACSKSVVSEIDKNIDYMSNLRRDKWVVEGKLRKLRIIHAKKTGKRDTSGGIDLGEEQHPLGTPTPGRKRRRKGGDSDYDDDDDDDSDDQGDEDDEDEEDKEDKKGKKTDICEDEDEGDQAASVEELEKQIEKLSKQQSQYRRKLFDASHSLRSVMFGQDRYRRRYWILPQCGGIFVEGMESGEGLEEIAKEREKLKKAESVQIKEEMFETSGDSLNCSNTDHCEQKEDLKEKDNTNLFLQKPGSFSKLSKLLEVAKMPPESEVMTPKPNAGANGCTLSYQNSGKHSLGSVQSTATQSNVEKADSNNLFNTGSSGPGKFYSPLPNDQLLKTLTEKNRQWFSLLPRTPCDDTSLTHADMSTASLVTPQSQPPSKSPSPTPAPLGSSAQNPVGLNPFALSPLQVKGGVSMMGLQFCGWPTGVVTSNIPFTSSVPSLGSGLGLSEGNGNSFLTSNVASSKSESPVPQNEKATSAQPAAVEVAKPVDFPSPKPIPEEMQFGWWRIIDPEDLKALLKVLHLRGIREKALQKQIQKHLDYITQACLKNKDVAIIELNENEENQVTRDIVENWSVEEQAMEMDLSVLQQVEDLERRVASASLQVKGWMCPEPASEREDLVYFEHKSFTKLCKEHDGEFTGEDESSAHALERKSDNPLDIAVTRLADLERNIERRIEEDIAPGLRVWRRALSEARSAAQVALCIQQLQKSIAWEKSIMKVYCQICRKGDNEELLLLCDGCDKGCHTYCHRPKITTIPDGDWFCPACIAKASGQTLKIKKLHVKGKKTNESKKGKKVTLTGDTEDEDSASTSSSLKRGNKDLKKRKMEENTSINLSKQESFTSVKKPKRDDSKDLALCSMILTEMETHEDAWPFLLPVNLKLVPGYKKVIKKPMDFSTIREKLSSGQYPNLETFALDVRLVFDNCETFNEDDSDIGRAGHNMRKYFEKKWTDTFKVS

Row | Structure (SMILES) | Potency | activity change, negative = inhibition
1 | Cc1ccc(NC(=O)Cc2ccc3c(c2)OCCO3)cc1S(=O)(=O)N1CCCCC1 | inconclusive: 79.4 µM [inhibitor, single point] | –
2 | Cc1ccc2nc(SCC(=O)Nc3ncccn3)[nH]c2c1 | inconclusive: 89.1 µM [inhibitor, single point] | –
3 | O=C(Nc1ccc2nc(-c3ccco3)[nH]c2c1)c1cccs1 | inconclusive: 89.1 µM [inhibitor, single point] | –
4 | c1ccc(-c2nn3c(Cn4cnc5ccccc54)nnc3s2)cc1 | – | inactive: -28.3%
5 | Cc1cc(C)c2nc(N3C(=O)C(O)=C(C(=O)c4ccco4)C3c3cccc(O)c3)sc2c1 (configuration not stated) | inconclusive: 44.7 µM [inhibitor, partial curve] | –
6 | CC1CCCN(CCCNC(=O)c2cc3c(Cl)nc4ccccc4c3s2)C1 (configuration not stated) | inconclusive: 79.4 µM [inhibitor, partial curve] | –
7 | CCc1cccc(CC)c1NC(=S)NCCc1c(C)[nH]c2ccc(C)cc12 | active: 28.2 µM | –
8 | COc1ccc(C(=O)CCC(=O)Nc2ccc(C)c(Cl)c2)cc1 | – | inactive: 2.83%
9 | N/N=C(\c1ccccc1)c1cc(Cl)ccc1N | inconclusive: 89.1 µM [inhibitor, single point] | –
10 | NCCNC[C@@H]1COC2(CCCCCCCCCCC2)O1 | inconclusive: 70.8 µM [inhibitor, single point] | –
11 | Cc1cc(/C=N/n2cnnc2)c(C)n1-c1ccc(OCc2ccccc2F)cc1 | inconclusive: 79.4 µM [inhibitor, single point] | –
12 | CC(C)C(NC(=O)c1ccc(Cl)cc1)C(=O)NC1=NCCS1 (configuration not stated) | – | inactive: -19.2%
13 | O=C(CNC(=O)Cc1ccccc1)N=Nc1c(O)[nH]c2ccc(Br)cc12 | inconclusive: 89.1 µM [inhibitor, single point] | –
14 | CC1CCN(C(=O)CCc2nnc3ccc(N4CCC5(CC4)OCCO5)nn23)CC1 | – | inactive: -3.3% [at 57.1 µM]
15 | O=C(CSc1ccc([N+](=O)[O-])cn1)Nc1ccc2c(c1)OCCO2 | inconclusive: 79.4 µM [inhibitor, single point] | –
16 | CN(C)CCN(C(=O)c1cccc(Cl)c1)c1nc2c(Cl)cccc2s1 | – | inactive: 2%
17 | Cc1cccc(C)c1NC(=S)N(CCN(C)C)Cc1cccs1 | inconclusive: 79.4 µM [inhibitor, single point] | –
18 | COc1ccccc1CNC(=O)C(CC(C)C)NC(=O)C1CCC(C)CC1 (configuration not stated) | inconclusive: 8.91 µM [inhibitor, single point] | –
19 | O=C1/C(=C\c2cc(Br)cc(Br)c2O)SC(=S)N1Cc1ccccc1 | active: 10 µM | –
20 | COc1ccc(Nc2nc(-c3ccccc3)c3ccccc3n2)cc1 | inconclusive: 50.1 µM [inhibitor, partial curve] | –
21 | Cc1ccc(SCC(=O)Nc2ccc3oc(-c4ccccc4F)nc3c2)cc1 | – | inactive: -16.5%
22 | Cc1cccc(NC(=O)[C@H](Cc2c[nH]c3ccccc23)NC(=O)[C@@H]2Cc3ccccc3CN2)c1 | inconclusive: 39.8 µM [inhibitor, partial curve] | –
23 | CCCCOc1ccc(CSCCN=C(N)N)cc1 | inconclusive: 89.1 µM [inhibitor, single point] | –
24 | Cc1ccc(OCC(=O)N(C)CC(=O)NCc2ccco2)c(Br)c1 | active: 50.1 µM | –

Row | Structure (SMILES) | Potency | activity change, negative = inhibition
25 | O=C(O)CN1C(=O)C(=O)N(Cc2ccc(Cl)c(Cl)c2)C1=O | inconclusive: 89.1 µM [inhibitor, single point] | –
26 | Cc1cc2oc(C(=O)N(Cc3ccco3)Cc3ccccc3Cl)c(C)c2cc1C | – | inactive: 3.48%
27 | Cc1ccc2c(C)c(C(=O)N3CCN(Cc4ccc5c(c4)OCO5)CC3)oc2c1C | inconclusive: 15.8 µM [inhibitor, full curve] | –
28 | Oc1c(C(c2cccs2)N2CCN(c3ccccc3)CC2)ccc2cccnc12 (configuration not stated) | active: 39.8 µM | –
29 | COCC(C)NC(=O)CSc1nc(-c2ccccc2)c(-c2ccccc2)o1 (configuration not stated) | inconclusive: 44.7 µM [inhibitor, partial curve] | –
30 | Cc1no[n+]([O-])c1COc1ccccc1/C=C1\NC(=S)NC1=O | inconclusive: 6.31 µM [inhibitor, single point] | –
31 | COCc1ccc(O)c2ncccc12 | active: 1.78 µM | –
32 | CC(=O)c1ccc(Nc2nc3ccccc3nc2NS(=O)(=O)c2cccs2)cc1 | – | inactive: 9.09%
33 | COc1ccc(/C=C2\SC(=S)N(CC(=O)OCC(=O)Nc3ccc([N+](=O)[O-])cc3OC)C2=O)cc1 | inconclusive: 89.1 µM [inhibitor, single point] | –
34 | FC(F)(F)c1cccc(N2CCN(C(=S)NC3CCCCC3)CC2)c1 | – | inactive: 1.9%
35 | O=C(CSc1nnc(-c2ccccc2O)o1)N1CCc2ccccc2C1 | inconclusive: 11.2 µM [inhibitor, full curve, poor fit] | –
36 | CCC(c1nnnn1Cc1ccco1)N1CCN(C(=O)c2ccco2)CC1 (configuration not stated) | inconclusive: 89.1 µM [inhibitor, single point] | –
37 | Cc1ccc(NC(=S)NCc2ccccc2)cc1[N+](=O)[O-] | – | inactive: -38.1%
38 | O=C(Nc1nnc(S(=O)(=O)N2CCOCC2)s1)c1cccc(F)c1 | inconclusive: 2.82 µM [inhibitor, full curve, poor fit] | –
39 | O=C(Nc1ccccc1)Nc1nncs1 | – | inactive: -14.3%
40 | C=CCNc1nc(-c2cc3ccccc3o2)cs1 | inconclusive: 89.1 µM [inhibitor, single point] | –
41 | Cn1c(=O)c(N)c2c3c(c(Br)ccc31)C(=O)c1ccccc1-2 | – | inactive: -33.4%
42 | O=C(CCCN1C(=O)/C(=C/c2ccc(F)cc2)SC1=S)NCCCn1ccnc1 | active: 22.4 µM | –
43 | CCc1nc(SCC(=O)c2ccccc2)c2c(=O)n(C)c(=O)n(C)c2n1 | inconclusive: 89.1 µM [inhibitor, single point] | –
44 | O=C(N/N=C/c1cc(Cl)ccc1O)c1ccccc1Br | inconclusive: 89.1 µM [inhibitor, single point] | –
45 | CC[C@@H](C(=O)[C@@H](C)[C@@H](O)[C@H](C)CCc1ccc(C)c(O)c1C(=O)O)[C@H]1O[C@](CC)([C@H]2CC[C@](O)(CC)[C@H](C)O2)C[C@@H]1C | inconclusive: 79.4 µM [inhibitor, partial curve] | –
46 | O=C1CCc2cc(S(=O)(=O)NCc3ccc(F)cc3)cc3c2N1CC3 | inactive | –
47 | CSc1ccccc1NC(=S)N/N=C/c1cccn1Cc1ccc(F)cc1 | active: 28.2 µM | –
48 | CC1CN(C2CCN(C(=O)c3ccccc3)CC2)CC(C)O1 (configuration not stated) | active: 56.2 µM | –

Row | Structure (SMILES) | Potency | activity change, negative = inhibition
49 | CCS(=O)(=O)N1CCN(C2CCC(c3ccccc3)CC2)CC1 (configuration not stated) | active: 50.1 µM | –
50 | C/C(=N/NS(=O)(=O)c1ccc(C(C)(C)C)cc1)c1ccc2c(c1)OCO2 | inconclusive: 70.8 µM [inhibitor, single point] | –
51 | CC(=O)Nc1cccc(C(=O)NC(C)c2ccc(-n3ccnc3)cc2)c1 (configuration not stated) | inconclusive: 89.1 µM [inhibitor, single point] | –
52 | Cc1c(C(=O)N(C)C)sc2c1c(=O)n(-c1ccc(F)cc1)c(=O)n2Cc1cc(=O)n2ccccc2n1 | – | inactive: 14.7%
53 | COCc1ccc(CN2CCc3c([nH]c4ccccc34)C2CC(C)C)o1 (configuration not stated) | inconclusive: 50.1 µM [inhibitor, partial curve] | –
54 | CCCCCC[n+]1c(-c2ccc(Cl)cc2Cl)csc1Nc1ccccc1 | inconclusive: 44.7 µM [inhibitor, partial curve] | –
55 | N#Cc1ccc2c(c1)C[C@]1(c3ccsc3)Oc3c(c(=O)oc4ccc(F)cc34)C2O1 | inconclusive: 14.1 µM [inhibitor, single point] | –
56 | Cc1cccc(NC(=O)CN2C(=O)S/C(=C\c3ccc(-c4cccc(C(=O)O)c4C)o3)C2=O)c1 | inconclusive: 70.8 µM [inhibitor, single point] | –
57 | Oc1ccc(/C=N/NC(=S)Nc2cccnc2)cc1O | inconclusive: 89.1 µM [inhibitor, single point] | –
58 | C=CCNc1nc(-c2cccs2)c(CC(=O)O)s1 | inconclusive: 89.1 µM [inhibitor, single point] | –
59 | Nc1nc(N2CCCCC2)nc(N2CCCCC2)n1 | inconclusive: 0.708 µM [inhibitor, partial curve, poor fit] | –
60 | CNC(=O)c1cc(S(=O)(=O)N(C)C)ccc1Cl | – | inactive: 6.99%
61 | Cc1c(C(=O)N2CCCC2)c(S(=O)(=O)NCC(C)c2ccccc2)c(C)n1C (configuration not stated) | inconclusive: 89.1 µM [inhibitor, single point] | –
62 | CCN(CC)CC(O)Cn1c(C)c(-c2ccccc2)c2cc([N+](=O)[O-])ccc21 (configuration not stated) | inconclusive: 35.5 µM [inhibitor, partial curve] | –
63 | CN1/C(=C\C(=O)CSc2nnc(N)s2)C(C)(C)c2ccccc21 | – | inactive: -2.48%
64 | O=C(Cc1csc(-c2ccccc2)n1)NCc1ccc(F)cc1 | – | inactive: 6.09%
65 | CCCn1c(SC2C(=O)CC(C)(C)CC2=O)nc2c1c(=O)n(C)c(=O)n2C | inconclusive: 89.1 µM [inhibitor, single point] | –
66 | CC1(C)Cc2c(c(N3CCOCC3)nc3sc4c(=O)[nH]cnc4c23)CS1 | inconclusive: 79.4 µM [inhibitor, single point] | –
67 | C/C(=N\Nc1nc2ccccc2s1)c1ccc2c(c1)OCO2 | inconclusive: 31.6 µM [inhibitor, full curve] | –
68 | Cc1ccc2ncccc2c1 | – | inactive: 24.9%
69 | Cn1c(=O)c2c(nc(Oc3ccccc3N)n2C)n(C)c1=O | – | inactive: -9.87%
70 | COc1ccccc1OCCCn1c(C2CC(=O)N(c3ccccc3Cl)C2)nc2ccccc21 (configuration not stated) | – | inactive: -33.8%
71 | CCOC(=O)C1CCN(c2c(C(=O)c3ccccc3)cnc3ccc(CC)cc23)CC1 | inconclusive: 44.7 µM [inhibitor, partial curve, poor fit] | –
72 | O=C(NC(=S)N1CCCc2ccccc21)c1ccccc1 | inconclusive: 50.1 µM [inhibitor, partial curve] | –
